Hit rate of the full screen: of about 16,000 compounds, about 120 (0.75%) were called active. About 4% were inconclusive and are not listed. The call rests on the fitted dose curve; in most records, active means well fitted inhibition curve with a large enough effect; inconclusive means small, poorly fitted or top-dose-only effect; inactive means no such curve, though single readings can be large or run the other way. Some of the results follow. Where a SMILES comes first, the peptide text is derived from it. Bridges are numbered along the chain shown (N, C = ends). [ ]: non-standard residue; d: D form. hArg = N=C(N)NCCCC[C@H](N)C(=O)O; Mpa = O=C(O)CCS
Each compound was assayed against Rap guanine nucleotide exchange factor 3 (Homo sapiens) (UniProt O95398) (assay: Validation qHTS for antagonist of cAMP-regulated guanine nucleotide exchange factor 3 (EPAC1)). Conditions: EPAC1 Rap1B-BODIPY-GDP exchange, fluorescence; series mostly up to 150 µM; activity change, negative = inhibition: at the top concentration.
Procedure, shortened: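 EPAC1 (100 nM) mixed with 250 nM RAP1B-BODIPY-GDP and 50 uM GDP; compounds in concentration series, 5 min at room temperature. Fluorescence (ex 480/em 540 nm) read every 5 min for 30 min; normalized to ATA control and DMSO.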
Further: nearly all actives have a fitted effect of over 75% in size.
Potency means the concentration at half of the fitted maximal effect.

Chain of UniProt O95398 (O95398 whole entry, looked up): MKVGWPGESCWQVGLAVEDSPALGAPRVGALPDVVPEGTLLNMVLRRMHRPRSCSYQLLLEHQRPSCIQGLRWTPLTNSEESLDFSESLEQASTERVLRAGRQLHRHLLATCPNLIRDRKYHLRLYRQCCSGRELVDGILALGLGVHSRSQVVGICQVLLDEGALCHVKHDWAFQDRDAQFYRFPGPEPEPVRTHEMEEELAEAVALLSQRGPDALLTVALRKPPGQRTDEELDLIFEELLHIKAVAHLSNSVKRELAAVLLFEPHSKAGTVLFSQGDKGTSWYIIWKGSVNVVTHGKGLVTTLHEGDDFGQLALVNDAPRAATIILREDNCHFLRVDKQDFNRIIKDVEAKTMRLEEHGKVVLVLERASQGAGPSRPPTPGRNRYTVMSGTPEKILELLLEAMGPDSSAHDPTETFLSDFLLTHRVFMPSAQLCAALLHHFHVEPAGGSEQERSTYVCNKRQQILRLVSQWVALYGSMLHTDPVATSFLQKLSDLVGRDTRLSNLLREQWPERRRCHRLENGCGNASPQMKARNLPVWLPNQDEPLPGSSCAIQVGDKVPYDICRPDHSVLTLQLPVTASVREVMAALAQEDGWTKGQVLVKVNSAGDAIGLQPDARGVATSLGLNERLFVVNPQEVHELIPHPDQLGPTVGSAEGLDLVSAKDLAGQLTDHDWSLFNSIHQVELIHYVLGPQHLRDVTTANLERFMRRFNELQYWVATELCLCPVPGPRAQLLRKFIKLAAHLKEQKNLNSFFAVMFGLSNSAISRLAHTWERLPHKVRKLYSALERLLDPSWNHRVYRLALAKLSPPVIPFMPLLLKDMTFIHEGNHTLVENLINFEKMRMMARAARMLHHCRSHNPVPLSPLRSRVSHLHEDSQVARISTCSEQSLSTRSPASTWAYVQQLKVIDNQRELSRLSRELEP

Compound	activity change, negative = inhibition	Potency
O=c1c(-c2cc(F)cc(F)c2)nc2cnc(N3CCNCC3)nc2n1-c1ccccc1	inactive: 2.96%	
O=c1[nH]cnc2nc[nH]c12	inactive: 11.5%	
Nc1ccc2nc[nH]c2c1	inactive: 18.1%	
CC(=O)OC1CC[C@]2(C)C(=CCC3C4CCC(C(C)CCCC(C)C)[C@]4(C)CCC32)C1 (stereo not given in full)	inactive: 17.2%	
CC(C)(C)c1ccc(O)c(O)c1	inactive: 33.8% [at 320 µM]	
C[C@@](Cc1ccc(O)c(O)c1)(NN)C(=O)O	inactive	
CC(NC(=O)c1cccnc1)c1nnc2n1CCN(Cc1ccc(-c3ccccc3Cl)o1)CC2 (stereo not given)	inactive: -0.694%	
Cc1ccc(SCCN2CCC(NC(=O)OCc3ccccc3)CCC2=O)cc1 (stereo not given)	inactive: 6.47%	
c1cncc(OC2CCN(Cc3ccc4c(c3)CN(Cc3ccc5c(c3)CCO5)CCO4)CC2)c1	inactive: 8.91%	
COc1ccc(Nc2ncc3nc(-c4cccs4)c(=O)n(Cc4cccc(OC)c4)c3n2)cc1	inactive: 20.1%	
COC(=O)C1N[C@@H]([C@@H](NC(=O)COc2ccccc2)C(=O)NC2CC2)SC1(C)C (stereo not given in full)	inactive: 2.3%	
Cc1cccc(CNC(=O)c2cnn(-c3nccc(-c4ccccc4F)n3)c2C)n1	inactive: 18.3%	
OCCN1CCN(Cc2ccc3c(c2)CN(Cc2cc4ccccc4o2)CCO3)CC1	inactive: 14.7%	
C=C1C(=O)O[C@@H]2C3OC3(C)CC/C=C(\C)CC[C@@H]12 (stereo not given in full)	inactive: 9.55%	
CCOC(=O)COc1ccc2c(C)c(CCN(CC)CC)c(=O)oc2c1	inactive: 36.3%	
O[C@@H]([C@H](O)[C@H](O)CBr)[C@H](O)CBr	inactive: -12.8%	
C#CCN(Cc1ccc(OC)cc1)S(=O)(=O)C=C	inactive: -2.31%	
CCCS(=O)(=O)NCc1c(C)ncc2c1CCN(C(=O)/C=C/c1cccc(Cl)c1)C2	inactive: 7.71%	
COc1cc(C(O)CO)ccc1O (stereo not given)	inactive: 23.4% [at 75.8 µM]	
CC[C@H](C)[C@H](N)C(=O)O	inactive: 13.9%	
O=C(c1ccncc1)N1CCC2(CC1)CCN(c1ccc(-c3ccccc3)cc1)CC2	inactive: 33.7%	
CC(=O)SC[C@@H](C)C(=O)N1CCC[C@H]1C(=O)N[C@@H](Cc1ccccc1)C(=O)O	inactive: 22.2%	
NC[C@@H]1O[C@H](C23CC4CC(CC(C4)C2)C3)Cc2c1ccc(O)c2O	inactive	
c1ccc2c(N3CCCCCC3)nc(CN3CCCCC3c3nccs3)nc2c1 (stereo not given)	inactive: 11.8%	
Cc1cnc2ccc3ccccc3c2c1C	inactive: 13.4%	

Compound	activity change, negative = inhibition	Potency
Cn1cccc1C(=O)N1CCC[C@@]2(CCN(Cc3nccs3)C2)C1	inactive: 13.6%	
NC(=O)[C@@H]1CSSCCC(=O)N[C@@H](CCCCN=C(N)N)C(=O)NCC(=O)N[C@@H](CC(=O)O)C(=O)N[C@@H](Cc2c[nH]c3ccccc23)C(=O)N2CCC[C@H]2C(=O)N1 ([Mpa][hArg]GDWPC-NH2; disulfide 1-7)	inactive: 8.87%	
CCNC(=O)[C@@H]1CCCN1C(=O)[C@H](CCCN=C(N)N)NC(=O)[C@H](CC(C)C)NC(=O)[C@@H](Cc1c[nH]c2ccccc12)NC(=O)[C@H](Cc1ccc(O)cc1)NC(=O)[C@H](CO)NC(=O)[C@H](Cc1c[nH]c2ccccc12)NC(=O)[C@H](Cc1cnc[nH]1)NC(=O)[C@@H]1CCC(=O)N1	inactive: 14.9%	
NCCCCN	inactive	
COC(=O)c1ccc(C(=O)N2CCc3c(C(=O)NC(C)c4ccco4)c(OC)cc(=O)n3CC2)cc1 (stereo not given)	inactive: 5.93%	
CN(Cc1ccc(C(C)(C)C)cc1)Cc1cccc2ccccc12	inactive	
COc1ccc2[nH]cc(CCNc3ncncc3-c3cccc(NS(C)(=O)=O)c3)c2c1	inactive: -13.3%	
COc1cccc(Nc2ncc3nc(CCc4ccccc4)c(=O)n(CCC#N)c3n2)c1	inactive: 11.1%	
Cc1cccnc1-c1cccc2c1OC(CNC(=O)/C=C/c1cccs1)C2 (stereo not given)	inactive: -6.14%	
N=C(CC(O)COc1ccccc1-c1ccccc1)N1CCCCC1 (stereo not given)	inactive: 13.8%	
CN(C)c1ncc2ncc(=O)n(CCc3ccccc3)c2n1	inactive: 6.75%	
COc1ccc(CNc2nc(-c3ccccc3OC)nc3ccccc23)c(OC)c1	inactive: -2.83%	
CC1(C)Oc2ccc(C#N)cc2[C@@H](OC2=CC(=O)CC2)[C@@H]1O	inactive	
Cc1ncc2c(c1CNS(=O)(=O)N(C)C)CCN(C(=O)c1[nH]c3ccc(Cl)cc3c1C)C2	inactive: -1.31%	
CC1=CC2C(CC1=O)C(C)=CCC2C(C)C (stereo not given)	inactive: 8.54%	
Cc1csc[n+]1CC(=O)c1ccc(I)cc1	inactive: -15.2%	
CC(C)C1COc2cc3oc(=O)ccc3cc2O1 (stereo not given)	inactive: -1.58%	
COc1ccc(C(=O)N2CCC3(CCCN(C(=O)NC(C)C)C3)CC2)cc1	inactive: 4.72%	
CN(C)c1ncc2nc(CCc3ccccc3)c(=O)n(Cc3ccc(F)cc3)c2n1	inactive: 14.1%	
Cc1cnc(CNc2ncncc2-c2ccccc2CN(C)C)cn1	inactive: -14.9%	
O=C(Cn1cncn1)N1CCOc2ccc(CN3CCN(c4ccccc4)CC3)cc2C1	inactive: 3.64%	
NC(CSCC(=O)O)C(=O)O (stereo not given)	inactive: -5.19%	
O=C(Nc1ccc(/C=C/c2ccc(NC(=O)c3cc(S(=O)(=O)O)c4cccnc4c3O)cc2S(=O)(=O)O)c(S(=O)(=O)O)c1)c1cc(S(=O)(=O)O)c2cccnc2c1O		active: 44.7 µM
CN(C)Cc1ccccc1-c1ccc2ncnc(N(C)Cc3ccco3)c2c1	inactive: 1.71%	
COc1ccc(CNc2ncnc3ccc(-c4ccc5c(c4)OCO5)cc23)c(OC)c1	inactive: -6.95%	
